Assay results as given in patent publication US4049497A (priority 1974, dated 1977).

Experiment: Stability of activity in 50% aqueous ethanol, room temperature, 16 hours; storage and methanol stability
Conditions: for activity remaining / conversion (thin-layer chromatographic analysis): 50% aqueous ethanol of pH 6.5 or pH 8.0, room temperature; for conversion in anhydrous methanol: room temperature
Source text: This invention embraces neothramycin A and neothramycin B substances, either alone or in a mixture of them, which may be present in a dilute solution, as a crude concentrate, as a crude solid, as a purified solid, as the free acid form and in the form of a salt thereof with a metal or an organic amine. […] From the results of elemental analysis and the determination of molecular weight, it is probable that neothramycin A has an empirical formula C13 H14 N2 O4 .1/2 H2 O. This formula has been confirmed by high-resolution mass-spectrometry (Found: m/e 262.0934, Calcd. mol. wt. for C13 H14 N2 O4 262.0952). […] Neothramycin B has the empirical formula: C13 H14 N2 O4 .1/2 H2 O. This formula has been confirmed by high-resolution mass-spectrometry (Found: m/e 262,0939, Calcd. mol. wt. for C13 H14 N2 O4, 262.0952).
But, neothramycin A and B are unstable in 50% aqueous ethanol of pH 2.5 and the activities are reduced to 25% and 22%, respectively, at room temperature for 16 hours. […] Methylneothramycin A is crystallized from a mixture of acetone and benzene, colorless microcrystals, m.p. 137°-140° C. (dec.); [α]D^26 +640° (C, 0.24, dioxane), MS, m/e 276.1089 (Calcd. mol. wt. for C14 H16 N2 O4, 276.1108). Methylneothramycin B is obtained as a colorless powder, m.p. 61°-69° C. (dec.); [α]D^26 +778° (C, 0.22, dioxane), MS, m/e 276.1071. Mild hydrolysis of methylneothramycin A or B in 0.01N HCl-dioxane (1:1 in volume) at room temperature for one hour followed by column chromatography on silica gel gives neothramycins A and B in a good yield.

SMILES | activity remaining | conversion (thin-layer chromatographic analysis) | conversion in anhydrous methanol
COc1cc2c(cc1O)N=C[C@@H]1CC[C@@H](O)N1C2=O [neothramycin B] | 70-80% | equilibrium conversion of neothramycin A to B or B to A | easily converted to a mixture of methyl-neothramycins A
COc1cc2c(cc1O)N=C[C@@H]1CC[C@H](O)N1C2=O [neothramycin A] | 80-90% | equilibrium conversion of neothramycin A to B or B to A | easily converted to a mixture of methyl-neothramycins A
